From the supplement of paper PMC9334596
Values joined by “and” are separate entries in the source; they are usually repeats but may differ in a detail not shown here. Equal entries are not always repeated. In all, about 5,300 compounds were measured (“PER2::LUC luminescence relative to vehicle control”: median about 0.96, highest 2% from about 1.3 on). Some of the results follow.

Tested on: mPer2Luc MEF
Assay: PER2::LUC luminescence relative to vehicle control (fold of vehicle); higher = higher PER2::LUC reporter signal
Details: 10 µM
Summary of the method: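 In 384-well plates, ~3000 mPer2Luc reporter mouse embryonic fibroblasts per well were cultured in DMEM with 10% FBS at 37 °C and 5% CO2 for 48 h before compounds from commercial libraries were added at 10 μM. ONE-Glo luciferase readings were taken 24 h and 30 h after treatment. Each value is PER2::LUC luminescence given as fold of vehicle control.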

SMILES | PER2::LUC luminescence (time after treatment 24 h) | PER2::LUC luminescence (time after treatment 30 h)
Cc1nc(NC(=O)N2CCC[C@H]2C(N)=O)sc1-c1ccnc(C(C)(C)C(F)(F)F)c1 | 0.553 | 0.49
COc1ccc(C(=O)C2CCN(CC(=O)N(Cc3nc4c(c(=O)[nH]3)COCC4)CC3CC3)CC2)cc1 | 1.04 | 0.931
S=C(S)O[C@H]1C[C@H]2C[C@@H]1[C@@H]1CCC[C@H]21 | 1.04 | 1.01
CN1C(=O)C(F)=C[C@]2(C)[C@H]3CC[C@]4(C)[C@@H](C(=O)NCc5nc6cccnc6[nH]5)CC[C@H]4[C@@H]3CC[C@@H]12 | 0.934 | 0.988
C[C@@H](NC(=O)/C(C#N)=C/c1ccc(O)c(O)c1)c1ccccc1 | 1.08 | 1.1
Sc1nc2ccccc2s1 | 0.972 | 0.928
CCOCCOc1ccccc1C(N)=O | 0.861 | 1.09
COc1ccc2cc1Oc1ccc(cc1)C[C@H]1c3cc(c(OC)cc3CCN1C)Oc1c(OC)c(OC)cc3c1[C@H](C2)N(C)CC3 | 0.354 | 0.398
CC[C@H]1OC(=O)[C@H](C)C(=O)[C@H](C)[C@@H](O[C@@H]2O[C@H](C)C[C@H](N(C)C)[C@H]2O)[C@](C)(OC)C[C@@H](C)C(=O)[C@H](C)[C@H]2N(CCCCn3cnc(-c4cccnc4)c3)C(=O)O[C@]12C | 1.06 | 0.887
CCCCOc1cc(C(=O)NCCN(CC)CC)c2ccccc2n1 | 0.922 and 0.647 | 0.751 and 0.73
O=C(O)[C@H]1C[C@H](C(=O)O)N1 (relative stereo) | 1.04 | 0.998
O=P(O)(O)C(Cl)(Cl)P(=O)(O)O | 1.12 | 0.974
Cc1ccc(O)cc1Nc1ccnc(Nc2cccc(C(N)=O)c2)n1 | 1.05 | 1.02
C[C@H](CC[C@@H]1OC1(C)C)[C@H]1CC[C@H]2[C@@H]3CC=C4C[C@@H](O)CC[C@]4(C)[C@H]3CC[C@]12C | 1.03 | 0.937
O=C1CCc2cc(OCCCCc3nnnn3C3CCCCC3)ccc2N1 | 0.737 | 0.864
CCS(=O)(=O)CCn1c([N+](=O)[O-])cnc1C | 1.08 | 0.966
N#C[C@@H]1C[C@@H]2C[C@@H]2N1C(=O)[C@@H](N)C12CC3CC(CC(O)(C3)C1)C2 | 1.25 and 0.721 | 1.11 and 1.01
CCC1=C(C)CN(C(=O)NCCc2ccc(S(=O)(=O)NC(=O)N[C@H]3CC[C@H](C)CC3)cc2)C1=O | 0.958 | 1.22
Cc1ccccc1-n1c(Cn2nc(-c3cccc(O)c3)c3c(N)ncnc32)nc2cccc(C)c2c1=O | 1.07 | 1.13
C[C@@]12C[C@@]3(O)O[C@@H](O1)[C@]1(COC(=O)c4ccccc4)[C@H]3C[C@@]12O[C@@H]1O[C@H](CO)[C@@H](O)[C@H](O)[C@H]1O | 0.885 and 0.959 | 1.05 and 0.911
COc1cc(/C=C/c2ccccc2)oc(=O)c1 | 1.22 | 1.31

SMILES | PER2::LUC luminescence (time after treatment 24 h) | PER2::LUC luminescence (time after treatment 30 h)
CCC(C)SSc1ncc[nH]1 (centres undefined) | 0.715 | 0.789
CCCCCCCC/C=C\CCCCCCCC(=O)NCCc1ccc(O)c(O)c1 | 1.06 | 1.12
CC(=O)OCC1=C(C(=O)O)N2C(=O)[C@@H](NC(=O)CSc3ccncc3)[C@H]2SC1 | 0.929 | 0.956
CN(C)[C@@H]1C(O)=C(C(N)=O)C(=O)[C@@]2(O)C(O)=C3C(=O)c4c(O)ccc(Cl)c4[C@@](C)(O)[C@H]3C[C@@H]12 | 0.816 | 1.05
O=C1OC2(c3ccc(O)cc3Oc3cc(O)ccc32)c2ccccc21 | 1.03 | 0.742
CC(CC(=O)O)C(N)C(=O)O (racemic) | 0.979 | 0.922
COc1cc(C(=O)NC2CCCNC2)cc(OC)c1OC (centres undefined) | 1.01 | 1.25
NC1CCN(O)C1=O (single isomer, unassigned; (-)) | 1.08 | 1.01
Cc1cc(-n2cccc2)c(S(C)(=O)=O)cc1C(=O)N=C(N)N | 1.17 | 0.995
C[C@]12CC[C@@H]3c4ccc(O)cc4CC[C@H]3[C@@H]1CCC2=O | 1.08 and 1.09 | 1.23 and 1.06
CC(C)[C@H](NC(=O)[C@H](CC(=O)O)NC(=O)[C@H](CCCCN)NC(=O)[C@@H](N)CCCN=C(N)N)C(=O)N[C@@H](Cc1ccc(O)cc1)C(=O)O | 1.12 | 0.97
CC1CN(S(=O)(=O)c2cccc3cnccc23)CCN1 (centres undefined) | 0.994 | 1.05
CCOC(=O)C1=C[C@]2(CC)CCCN3CCc4c(n1c1ccccc41)[C@@H]32 | 1.03 and 1.04 | 0.999 and 0.966
CN1CCC(COc2cnc(-c3cccc(Cn4nc(-c5cccc(C#N)c5)ccc4=O)c3)nc2)CC1 | 0.706 | 0.744
Cc1cccc(CN2CCN(C(c3ccccc3)c3ccc(Cl)cc3)CC2)c1 (centres undefined) | 1.07 and 0.753 | 0.997 and 0.864
CCOC(OCC)P(=O)(O)CCCNCc1ccc(Cl)c(Cl)c1 | 0.984 | 0.976
O=C(O)CCC(=O)Nc1ccc(S(=O)(=O)Nc2nccs2)cc1 | 0.666 | 0.939
O=C(O)CCn1c2c(c3ccccc31)C[C@H](NS(=O)(=O)c1ccc(F)cc1)CC2 | 1.08 | 0.943
COc1cnc(NS(=O)(=O)c2ccc(N)cc2)nc1 | 0.926 | 1
CC(C)Cc1ccc(C(C)C(=O)O)cc1 (racemic) | 1.12 and 0.926 | 0.938 and 0.803
O=NN(CCCl)C(=O)NC1CCCCC1 | 0.824 | 0.938

SMILES | PER2::LUC luminescence (time after treatment 24 h) | PER2::LUC luminescence (time after treatment 30 h)
CNCCC(Oc1ccccc1OC)c1ccccc1 (centres undefined) | 1.01 | 0.955
CCCCC(C)(O)C/C=C/[C@H]1[C@H](O)CC(=O)[C@@H]1CCCCCCC(=O)OC (mixture of isomers) | 1.04 | 1.02
COc1ccccc1O | 0.97 | 0.878
CC1CNCCN1S(=O)(=O)c1cccc2cnccc12 (centres undefined) | 1.13 | 0.909
C/C=N/N(C)C=O | 1.03 | 0.928
Cn1c(=O)cc(N2CCC[C@@H](N)C2)n(Cc2ccccc2C#N)c1=O | 0.943 | 0.98
CCOC(=O)CCCCCCCCCCCN(C)C(=O)CO[C@H](C)[C@@H](C)OCC(=O)N(C)CCCCCCCCCCCC(=O)OCC | 1.2 | 1.08
CCOc1ccc(-c2nc(-c3cccc4c3CCC4NCCO)no2)cc1OCC (centres undefined) | 0.853 | 0.942
O=c1c2cc(O)c(O)cc2oc2cc(O)c([C@@H]3O[C@H](CO)[C@@H](O)[C@H](O)[C@H]3O)c(O)c12 | 1.05 | 0.993
C=C1C[C@]23C[C@@]1(O)CC[C@H]2[C@@]12C=C[C@H](O)[C@@](C)(C(=O)O1)[C@H]2[C@@H]3C(=O)O | 1.07 and 0.983 | 1.07 and 0.929
Cc1nnc(C(C)C)n1C1C[C@H]2CC[C@@H](C1)N2CC[C@H](NC(=O)C1CCC(F)(F)CC1)c1ccccc1 (stereo in doubt) | 0.968 | 0.934
CCOc1cc(C(C)(C)C)ccc1C1=N[C@@](C)(c2ccc(Cl)cc2)[C@@](C)(c2ccc(Cl)cc2)N1C(=O)N1CCN(CC(=O)N2CCOCC2)CC1 | 0.78 | 0.651
COc1ccc(-c2cc(=O)c3c(O)cc(O[C@@H]4O[C@H](CO[C@@H]5O[C@@H](C)[C@H](O)[C@@H](O)[C@H]5O)[C@@H](O)[C@H](O)[C@H]4O)cc3o2)cc1O | 0.877 | 1.25
COc1cc(Nc2ncc(F)c(Nc3ccc4c(n3)N(COP(=O)(O)O)C(=O)C(C)(C)O4)n2)cc(OC)c1OC | 0.591 and 0.225 | 0.424 and 0.163
N#Cc1cc2[nH]c(=O)c(=O)[nH]c2cc1[N+](=O)[O-] | 0.979 | 0.918
CC1(C)[C@H]2CC[C@]1(CS(=O)(=O)O)C(=O)C2=Cc1ccc(C=C2C(=O)[C@@]3(CS(=O)(=O)O)CC[C@@H]2C3(C)C)cc1 | 0.559 | 1.03
NC(=O)NC(=O)Cc1ccccc1 | 0.87 and 0.95 | 1.19 and 0.957
CN1CC2c3ccccc3Oc3ccc(Cl)cc3C2C1 (centres undefined) | 0.815 and 0.759 and 0.706 | 0.713 and 0.621 and 0.662
COc1ccc(C(=O)c2ccc(C)cc2)c(O)c1 | 1.02 and 1.29 | 1.55 and 1.57
CN1[C@@H](CC(=O)c2ccccc2)CCC[C@H]1C[C@H](O)c1ccccc1 | 0.975 and 0.85 and 0.873 | 0.939 and 0.881 and 0.759
CCC(CC)CC1(C(=O)Nc2ccccc2SC(=O)C(C)C)CCCCC1 | 1.1 | 0.999

SMILES | PER2::LUC luminescence (time after treatment 24 h) | PER2::LUC luminescence (time after treatment 30 h)
OC[C@@H](O)[C@@H](O[C@@H]1O[C@H](CO)[C@H](O)[C@H](O)[C@H]1O)[C@H](O)[C@@H](O)CO | 1.02 and 0.968 and 0.877 | 1.01 and 1.07 and 0.932
c1ccc2[nH]c(-c3cscn3)nc2c1 | 1.41 | 1.35
Cn1cc(-c2ccc3nnc(C(F)(F)c4ccc5ncccc5c4)n3n2)cn1 | 0.849 | 0.896
CC(=O)C(C)=O | 1.03 | 0.918
COc1cc(C(O)C(=O)O)ccc1O (racemic) | 0.883 | 0.755
COc1ccc(CNC(=O)c2cc(-c3cncc(C)c3)ncc2-c2nccs2)nc1OC | 0.967 | 0.903
CC(C)(C)NC(=O)N[C@H](C(=O)N1C[C@H]2[C@@H]([C@H]1C(=O)NC(CC1CCC1)C(=O)C(N)=O)C2(C)C)C(C)(C)C (some centres undefined) | 0.933 | 0.933
CSc1nc(N)c2ncn([C@@H]3O[C@H](COP(=O)(O)OP(=O)(O)OP(=O)(O)O)[C@H](O)C3O)c2n1 (some centres undefined) | 1.05 | 1.1
C[C@H](C[C@H](N)C(=O)O)C(=O)O | 1.07 | 0.884
CC(C)=CCC/C(C)=C/CC/C(C)=C/CC/C(C)=C/CC1=C(C)C(=O)c2ccccc2C1=O | 1.01 and 0.917 | 1.08 and 0.933
COc1cc(O)c(C)c(O)c1 | 1.21 | 1.03
OCC(O)C(O)C(O)C(O)C(O)CO (centres undefined) | 1.08 | 0.998
NOCC(=O)O | 0.961 | 1.11
COc1cc2ncnc(Nc3ccc(O)cc3)c2cc1OC | 0.787 and 0.711 | 0.688 and 0.622
C[C@H](CCC(=O)O)[C@H]1CC[C@H]2[C@@H]3CC[C@@H]4CCCC[C@]4(C)[C@H]3CC[C@]12C | 1.01 | 1.2
C[C@]12CC[C@@H]3c4ccc(O)cc4CC[C@H]3[C@@H]1C[C@H](O)[C@@H]2O | 1.07 | 0.987
O=C1CC2(CCCC2)CC(=O)N1CCNCC1COc2ccccc2O1 (centres undefined) | 1.1 and 1.05 | 0.987 and 0.887
CCCCCCCC(=O)CCc1ccc(O)c(OC)c1 | 1.04 | 0.901
CC(=O)N[C@@H](Cc1ccccc1)C(=O)O | 1.02 | 0.924
